Data on 65 molecules can be found in ChEMBL document CHEMBL4888484, “Replenishing the malaria drug discovery pipeline: Screening and hit evaluation of the MMV Hit Generation Library 1 (HGL1) against asexual blood stage Plasmodium falciparum ,using a nano luciferase reporter read-out” (2022).

The whole screen tested about 4,800 compounds, of which about 420 (8.8%) showed an effect of 50% or more. The list shows a part of the results.

This experiment has as its system Plasmodium falciparum. Briefly: Confirmatory screen in NF54 nanoGlo assay, in single point, at 2uM, 72h. Format: functional, Erythrocyte. Conditions: timepoint 72 hour.
Turning to `COc1ccc(N=C2NC(=O)CC(=O)N2)cc1`, the % Inhibition (usually the change of the read-out against control, counted positive when it falls) is given as -10%.

`c1ccc(C2=NN(c3ccc(-c4cc(-c5ccccc5)[n+](-c5ccccc5)c(-c5ccccc5)c4)cc3)[C@H](c3ccccc3)C2)cc1`: the “% Inhibition” value was 94%.

Regarding `CC(C)O[C@@H]1CCN(C[C@H](O)c2ccc(C(F)(F)F)cc2)C1`, the “% Inhibition” value was determined as 35%.

For the molecule `Cc1c(Cc2c(Cl)cccc2Cl)c(=O)ccn1[C@@H](C)c1ccccc1`, the “% Inhibition” value is recorded as -2%.

As for `COC[C@@H](C)CNc1nc(C)cc(C)n1`, the “% Inhibition” value is -3%.

For the molecule `c1ccc(-c2noc(-c3ccc(NC4CCCCC4)nn3)n2)cc1`, the “% Inhibition” value came to 55%.

Turning to `CN([C@H]1CCCc2c1cnn2C)S(=O)(=O)CCN1CCCC1`, the “% Inhibition” value came out at 1%.

`CCNC(=O)NCCOC(=O)Cc1cc(Cl)cc2c1OCC2`: the “% Inhibition” value is reported as 3%.

Regarding `COc1cccc(N2CCN(C(=O)c3cc4c(s3)CCN(C(C)=O)C4)CC2)c1`, the “% Inhibition” value is -4%.

As to `CC(C)(C)CC(C)(C)N1C[C@@H](C(=O)O)CC1=O`, the “% Inhibition” value is -7%.

For the molecule `COc1cccc(S(=O)(=O)N2CCCN(Cc3ccncc3)[C@H](c3ccccc3)CC(=O)NCC2)c1`, the “% Inhibition” value is on record as 92%.

With `CCc1nnc2ccc(S(=O)(=O)Nc3ccc(Cl)cc3)cn12`, the “% Inhibition” value is recorded as 8%.

Consider `CCOC(=O)c1cnn(C)c1S(=O)(=O)N1CCCCC1`, for which the “% Inhibition” value is -5%.

On to `Fc1ccccc1N1CCN(c2c3c(nc4nc(Cc5ccc(Cl)cc5)nn24)CCCC3)CC1`, for which the “% Inhibition” value is given as -11%.

Regarding `COc1cccc2c(N3CC[C@]4(CNC(=O)C4)C3)nccc12`, the “% Inhibition” value is given as -4%.

Take `C[C@@H](C(=O)Nc1ncc[nH]1)c1ccc2c(c1)[nH]c1ccc(Cl)cc12`: the “% Inhibition” value was 9%.

In the case of `O=C(CN1C(=O)[C@H]2CCCC2=Nc2ccccc21)NCCCc1ccccc1`, the “% Inhibition” value is given as -13%.

Take `O=C(CN1C(=O)c2ccccc2C1=O)N1CC(=O)N2CCc3ccccc3[C@@H]2C1`: the “% Inhibition” value is given as -1%.

With `Cc1cccc(NC(=O)CC(C)(C)CC(=O)O)c1C`, the “% Inhibition” value stood at 0%.

Take `CC(C)(C)OC(=O)NC1CCCN(CC2CN(c3ccc(F)cc3)C(=O)O2)C1` (stereo not given): the “% Inhibition” value is -8%.

In the case of `Cc1ccc(C)n1[C@@H](CC(=O)O)c1ccco1`, the “% Inhibition” value is given as -3%.

As to `CCn1nc(C)c(CN(C)S(=O)(=O)c2ccc(N3CCCC3=O)cc2)c1C`, the “% Inhibition” value is recorded as -11%.

Regarding `CN1CCCC(CN2C(=O)C3CCCN3C2=O)C1c1cccc(Cl)c1` (stereo not given), the “% Inhibition” value is listed as -13%.

Consider `O=C(CC1COCCN1C(=O)C1CCc2ccccc21)c1ccco1` (stereo not given), for which the “% Inhibition” value was -16%.

In the case of `c1ccc(Oc2ccc(CNCc3nnc4n3CCCCC4)o2)cc1`, the “% Inhibition” value was determined as 3%.

As for `Nc1c(-c2ccccc2)nsc1C(=O)NCc1ccccc1`, the “% Inhibition” value was determined as 3%.

`Cc1ccc(C(=O)Nc2cc3c4c(c2)C2CCCC2CN4CC2CCCC32)cc1` (stereo not given): the “% Inhibition” value worked out at 60%.

Regarding `COc1ccc(N(C)S(=O)(=O)c2ccsc2-c2nc(-c3cccnc3)no2)cc1Cl`, the “% Inhibition” value is -5%.

With `Cc1nnc(CC(=O)NC2CC(OCc3ccccc3)C2(C)C)o1` (stereo not given), the “% Inhibition” value was determined as 0%.

Regarding `CCCCCn1c(NCc2cc(Cl)ccc2O)nc2ccccc21`, the “% Inhibition” value was 37%.

Turning to `Brc1ccc2c(c1)CN(Cc1c[nH]cn1)CCO2`, the “% Inhibition” value came out at 4%.

Regarding `Cc1ccc(N2CCN(C(=O)c3ccco3)[C@@H](C)C2=O)c(C)c1`, the “% Inhibition” value is recorded as -10%.

In the case of `COc1ccc(S(=O)(=O)N(CC(=O)N2CCN(Cc3ccc4c(c3)OCO4)CC2)C2CCCCC2)cc1OC`, the “% Inhibition” value was -3%.

In the case of `C=CCNC(=O)CCC(=O)NCc1ccco1`, the “% Inhibition” value is on record as 2%.

`N#Cc1cnc(NC2CC3CCC2C3)cn1` (stereo not given): the “% Inhibition” value was -8%.

For `O=S1(=O)N=C(n2ccnc2)c2ccccc21`, the “% Inhibition” value is recorded as -7%.

Consider `CCO[C@@H](C)C(=O)Nc1cnns1`, for which the “% Inhibition” value was -6%.

For the molecule `Cc1cccc(Cn2ccn3nc(-c4cccc5ccccc45)cc3c2=O)c1`, the “% Inhibition” value is -16%.

In the case of `Cc1cc(C)n(NC(=O)CCn2nc(C(F)(F)F)c(Br)c2C2CC2)c(=O)c1`, the “% Inhibition” value worked out at 3%.

As to `Cc1nc(COC(=O)c2c[nH]nc2-c2c(F)cccc2F)no1`, the “% Inhibition” value was -5%.

With `CCS(=O)(=O)Nc1cc2c(C(C)=O)c(C)oc2cc1C`, the “% Inhibition” value worked out at 4%.

Turning to `Cc1cc(CCC(=O)Nc2nnn[nH]2)ccc1Br`, the “% Inhibition” value is -1%.

In the case of `Cc1noc(C2CCN(CC(=O)Nc3ccccc3C(=O)NCC(C)C)CC2)n1`, the “% Inhibition” value was -5%.

`CC(C)(C)NC1=Nc2ccccc2N[C@]12CCCN(C(=O)COc1ccccc1)C2`: the “% Inhibition” value is reported as -11%.

Turning to `Cc1cc(NC(=O)c2c(C)sc3ncnc(N4CCCC4)c23)ccc1F`, the “% Inhibition” value worked out at 8%.

As for `COc1ccc(OC)c(Nc2cc(C)nc3nnnn23)c1`, the “% Inhibition” value is reported as -9%.

For the molecule `CCNC(=O)N1CCCC[C@@]1(C)c1noc(-c2ccc(F)cc2)n1`, the “% Inhibition” value was 5%.

Take `Cc1cc(C)c(NC(=O)CN(C)C(=O)NCc2ccco2)c(C)c1`: the “% Inhibition” value is -8%.

Turning to `COC(=O)c1cc(S(=O)(=O)NCCc2csc(C)n2)cc(F)c1F`, the “% Inhibition” value was found to be 3%.

`COc1cccc(-c2noc3nc(C)cc(C(=O)NCCCn4cccn4)c23)c1`: the “% Inhibition” value is -9%.

With `O=C(Nc1nccs1)C1C2CCC(O2)C1C(F)(F)F` (stereo not given), the “% Inhibition” value was 0%.

For `O=C(c1ccc2ccccc2c1)N1CCC[C@H]1c1nc2ccccc2s1`, the “% Inhibition” value came to 1%.

In the case of `Oc1cc(OCc2ccccc2F)ccc1-c1[nH]ncc1-c1ccccc1`, the “% Inhibition” value was found to be 75%.

As to `CC1=NN(c2ccccc2)C(=O)[C@H]1N1C(=O)c2ccccc2C1=O`, the “% Inhibition” value is listed as -3%.

For `COc1ccc(-c2cc3ncc(C(=O)c4cc(Cl)ccc4O)cn3n2)cc1`, the “% Inhibition” value worked out at 72%.

`Oc1ccc([C@@H](c2cn(-c3nc(-c4ccc(Cl)cc4)cs3)nc2-c2ccccc2)c2c(-c3ccccc3)nn(-c3nc(-c4ccc(Cl)cc4)cs3)c2O)cc1`: the “% Inhibition” value came out at 6%.

As for `O=C(O)c1ccc(-c2n[nH]c(=O)c3c2CCCC3)cc1`, the “% Inhibition” value is given as -7%.

In the case of `CC1CCN(Cc2ccc(CNCc3c[nH]nc3-c3ccc(F)cc3)cc2)CC1`, the “% Inhibition” value is recorded as 40%.

In the case of `Cc1cccc(-c2nc(C[N+]3(Cc4nc(-c5cccc(C)c5)oc4C)CCCC3)c(C)o2)c1`, the “% Inhibition” value turned out to be 41%.

`Cc1c(NC(=O)CCc2ccsc2)nnn1Cc1ccccc1F`: the “% Inhibition” value is reported as -10%.

With `O=C(CN1CCCCCC1)Nc1ccc(OCc2ccccc2)cc1`, the “% Inhibition” value turned out to be 0%.

For the molecule `Cn1nc(C(F)(F)F)cc1B1OC(C)(C)C(C)(C)O1`, the “% Inhibition” value turned out to be 4%.

As for `CC(=O)OCc1c(C)n(C)c(=O)n(C)c1=O`, the “% Inhibition” value was -6%.

As for `CCCC(CCC)C(=O)Nc1ccc(O)cc1C(=O)O`, the “% Inhibition” value came to 2%.

Consider `CC(C)c1nc(NC(=O)c2c[nH]nc2-c2c(F)cccc2F)n(C)n1`, for which the “% Inhibition” value amounted to 0%.
